From the supplement of paper PMC11417369
The other results are listed elsewhere or left out.

system: PfAP2-HC AP2 domain (GST-tagged); test: gcPBM binding intensity (ln(normalized median fluorescence intensity)); higher = stronger DNA binding
In short: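 GST-fused DNA-binding domains of P. falciparum, expressed in E. coli, were applied at about 25 μg on average for 1 h to an Agilent 4 × 180k array of primer-extended double-stranded 36-bp intergenic genomic probes and negative controls. Binding intensity is the highest Masliner-normalised natural-log median intensity across replicate spots of either probe orientation, measured with Alexa488 anti-GST antibody and a 488 nm scan.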

Question: With “TATATATATAAACACACACACACACCCAAGCGTAGC [CACACA_site4210]” as the sequence, how does the “gcPBM binding intensity (ln)” value read?
Answer: 10.6

Question: “TATTTGTGTATTTTTACACACATTAATATATTTATA [CACACA_site7562]” was tested. Which “gcPBM binding intensity (ln)” value did it give?
Answer: 9.78

Question: For “TGTACAAATTATACTTCGAACGAAGGGCATACATAT [XGTACX_negctrl_site37]”, which “gcPBM binding intensity (ln)” value is on record?
Answer: 9.68

Question: For “TATATATATATTATATGTACACATTTGTGAATTATT [XGTACX_site5848]”, which “gcPBM binding intensity (ln)” value is on record?
Answer: 9.64

Question: Which “gcPBM binding intensity (ln)” value does the source give for “TGTGTTATATATAAAGAAAAAAAAAAAAAATATATA [CACACA_negctrl_site567]” here?
Answer: 9.61

Question: How did the “gcPBM binding intensity (ln)” value turn out when “AAAAATTTAATTATTTGTACATAAAATACATTTCTG [XGTACX_site791]” was run?
Answer: 9.48

Question: How did the “gcPBM binding intensity (ln)” value turn out when “TATTCCTATATAAAGACACACATATGTAACTACGAT [CACACA_site4139]” was run?
Answer: 9.9

Question: “GAACTTTACAACCCAACACACAAAAAAGAAAAGAAA [CACACA_site1717]” was tested. Which “gcPBM binding intensity (ln)” value did it give?
Answer: 10.1

Question: Which “gcPBM binding intensity (ln)” value does the source give for “ATTGGTGTATGTTTATGTACTTATCACAATTATGAA [XGTACX_site7055]” here?
Answer: 9.62

Question: For “AATAGGAAAAGAAAAGCACACACATAAATAAATATA [CACACA_site8062]”, which “gcPBM binding intensity (ln)” value is on record?
Answer: 10.3

Question: With “ATATGTTCATTTAAAAGTACTTAATATAACATTTTT [XGTACX_site3332]” as the sequence, how does the “gcPBM binding intensity (ln)” value read?
Answer: 9.56

Question: For “TATTTTAACATGTTTTCAAAAATAAAACATATAAAT [CACACA_negctrl_site1598]”, which “gcPBM binding intensity (ln)” value is on record?
Answer: 9.3

Question: Which “gcPBM binding intensity (ln)” value does the source give for “TAATATGACATAAGGGGTACTATATATATATATATT [XGTACX_site386]” here?
Answer: 9.72

Question: With “AAACATTTACTATATTGTACTTAAGATCTTATCGTA [XGTACX_site3919]” as the sequence, how does the “gcPBM binding intensity (ln)” value read?
Answer: 9.62

Question: With “GTTTTATAAAAAGGCGCACACATATACATAAATATA [CACACA_site1864]” as the sequence, how does the “gcPBM binding intensity (ln)” value read?
Answer: 10.1

Question: How did the “gcPBM binding intensity (ln)” value turn out when “TAAATACAAAAATGCACACGAAAAGTAATATATATA [CACACA_site6151]” was run?
Answer: 9.95

Question: “GATAAAGTACTTTATACACACAAATATTTATATATA [CACACA_site3974]” was tested. Which “gcPBM binding intensity (ln)” value did it give?
Answer: 9.82

Question: For “AAAAAGAAAATATATACACACCAAAAAAAAAAAAAA [CACACA_site5698]”, which “gcPBM binding intensity (ln)” value is on record?
Answer: 9.75

Question: With “TCAAATTACTAAAATACACACATATTATAGATATAT [CACACA_site7233]” as the sequence, how does the “gcPBM binding intensity (ln)” value read?
Answer: 9.69

Question: With “TGTATATATAATAAAACACACATTTTTAATGTGCTC [CACACA_site1437]” as the sequence, how does the “gcPBM binding intensity (ln)” value read?
Answer: 9.74

Question: “AAACGATTAATGTGTACACACATAGTTATAAACATA [CACACA_site7073]” was tested. Which “gcPBM binding intensity (ln)” value did it give?
Answer: 10.1

Question: With TTACACATGTATTTGGTGCATGTTGTTAACAAAATA as the sequence, how does the “gcPBM binding intensity (ln)” value read?
Answer: 9.52

Question: How did the “gcPBM binding intensity (ln)” value turn out when “TTAACATACACTCTAGTGCATATATATAACAAAATA [GTGCAC_site9724]” was run?
Answer: 9.49

Question: How did the “gcPBM binding intensity (ln)” value turn out when “ATTAAAACACAATATTCACACATGTATATTATATAT [CACACA_site5191]” was run?
Answer: 9.8

Question: For “AATTTAAATCTTCAAAGTACTAAAAAAAAAAATAAT [XGTACX_site8566]”, which “gcPBM binding intensity (ln)” value is on record?
Answer: 9.34

Question: Which “gcPBM binding intensity (ln)” value does the source give for “ATCATATTTATATTGGTGCATTATGCATGAAATTTA [GTGCAC_site9571]” here?
Answer: 9.6

Question: Which “gcPBM binding intensity (ln)” value does the source give for “ATAATAAGCAGACACACACACACAAAAAAAAAAAAA [CACACA_site6477]” here?
Answer: 11

Question: Which “gcPBM binding intensity (ln)” value does the source give for “ATATAAATTTAATACACACCCAAAAAAAAAAAAAAA [CACACA_site3750]” here?
Answer: 9.72

Question: Which “gcPBM binding intensity (ln)” value does the source give for “TAAATAAATACATACACACACATACAGATATATATA [CACACA_site5690]” here?
Answer: 10.5

Question: For “TATGCTTTGATGAAGACACACATATAGAAGCGTATT [CACACA_site1925]”, which “gcPBM binding intensity (ln)” value is on record?
Answer: 9.66

Question: With “CGCCCACAGATATATACACACATATATAAATAAATA [CACACA_site6877]” as the sequence, how does the “gcPBM binding intensity (ln)” value read?
Answer: 9.69

Question: “AAAACTATTTCTTTCAGTACATATTTGGACTTATAT [XGTACX_site4977]” was tested. Which “gcPBM binding intensity (ln)” value did it give?
Answer: 9.52

Question: For “TACTTTTATAAAAATTGTACAAAAAAAAAAAAAAAA [XGTACX_site2266]”, which “gcPBM binding intensity (ln)” value is on record?
Answer: 9.03

Question: “TATGTTATAAAATATATATTATAATATGTATATATA [XGTACX_negctrl_site233]” was tested. Which “gcPBM binding intensity (ln)” value did it give?
Answer: 9.49

Question: For “AAACAAAAAAGTAAGAAAAGGGATGATTGGATCCAA [CACACA_negctrl_site1230]”, which “gcPBM binding intensity (ln)” value is on record?
Answer: 9.62

Question: How did the “gcPBM binding intensity (ln)” value turn out when “AGATATTATAATTAATGTACAAAAAGAAAAAATAGA [XGTACX_site8964]” was run?
Answer: 9.76

Question: For “CATACATACAGACACACACACATATATATATATATA [CACACA_site2920]”, which “gcPBM binding intensity (ln)” value is on record?
Answer: 10.7

Question: Which “gcPBM binding intensity (ln)” value does the source give for “AACATAAAAATGAACATACACACATATATATATATA [CACACA_site2497]” here?
Answer: 10.7

Question: With “ATAAAAATACAGTTAACACACATGTGGATATATATG [CACACA_site3771]” as the sequence, how does the “gcPBM binding intensity (ln)” value read?
Answer: 10.4

Question: How did the “gcPBM binding intensity (ln)” value turn out when “TATATAACATAATATACACACATTATGTGCGTAATT [CACACA_site4073]” was run?
Answer: 9.75

Question: With GTATATCATTTTGGGGTGCTTAAAAATAATGAATAC as the sequence, how does the “gcPBM binding intensity (ln)” value read?
Answer: 9.56

Question: For “TTTTTTTTTTTTTATTGTACAAAGGTATAAAATAAT [XGTACX_site2396]”, which “gcPBM binding intensity (ln)” value is on record?
Answer: 9.34

Question: How did the “gcPBM binding intensity (ln)” value turn out when “TATTATTCTGTATTTGCATGTGATCATATATATGTA [TGCATGCA_site1053]” was run?
Answer: 9.72

Question: “CATATGTATATGACTACACACAAGGGTGTACAGATA [CACACA_site4776]” was tested. Which “gcPBM binding intensity (ln)” value did it give?
Answer: 9.8
